Laboratory results taken from PubChem BioAssay AID1476 (National Center for Advancing Translational Sciences (NCATS), 2009).
About 4,500 (2.2%) of roughly 200,000 compounds were called active. Inconclusive means that the source gave no clear call. Such entries were picked first, then a sample of the others. The call rests on the fitted dose curve; in most records, active means well fitted inhibition curve with a large enough effect; inconclusive means small, poorly fitted or top-dose-only effect, or effect the other way; inactive means flat fitted curve, though single readings scatter. Where the call is inconclusive, the potency comes from a doubtful curve fit.

Target: Cruzipain (Trypanosoma cruzi) (UniProt P25779)
Sequence of UniProt P25779 (P25779 whole entry, looked up): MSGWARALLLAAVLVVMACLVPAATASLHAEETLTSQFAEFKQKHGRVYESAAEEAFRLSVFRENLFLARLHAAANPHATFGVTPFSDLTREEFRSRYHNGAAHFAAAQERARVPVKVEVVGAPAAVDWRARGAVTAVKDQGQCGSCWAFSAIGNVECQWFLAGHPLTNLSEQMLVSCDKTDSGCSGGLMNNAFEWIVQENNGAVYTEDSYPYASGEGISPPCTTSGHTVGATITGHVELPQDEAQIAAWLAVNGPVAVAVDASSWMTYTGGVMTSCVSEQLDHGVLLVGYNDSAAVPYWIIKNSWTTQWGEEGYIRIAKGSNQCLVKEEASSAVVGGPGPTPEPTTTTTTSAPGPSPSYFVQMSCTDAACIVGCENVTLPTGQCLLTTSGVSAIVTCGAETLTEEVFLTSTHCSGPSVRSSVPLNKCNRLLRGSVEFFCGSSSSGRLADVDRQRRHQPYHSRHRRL
Assay: qHTS Assay for Promiscuous and Specific Inhibitors of Cruzain (without detergent); further: nearly all actives have a fitted effect of over 40% in size;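 on max response, negative = inhibition: plate controls were enzyme without inhibitor for no effect and buffer without enzyme for full effect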
Conditions: purified cruzain, Z-FR-AMC fluorescence, no detergent
Outline: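 Purified cruzain at 1.5 nM, pre-incubated 15 min with compound at room temperature in 100 mM sodium acetate pH 5.5, 5 mM DTT, 0.00005% Triton X-100. Reaction started with 2 uM Z-FR-AMC; AMC fluorescence increase over 60 s gives rate.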
Potency means the concentration at half of the fitted maximal effect; tags describe the fitted curve by direction and shape.

| SMILES | Potency | max response, negative = inhibition |
| --- | --- | --- |
| CCc1ccc(-c2cc(C)no2)cc1S(=O)(=O)N1CCN(c2cccc(Cl)c2)CC1 | active: 25.1 µM | – |
| CCc1nnc(NC(=O)c2ccc(S(=O)(=O)NC3CCCCC3)cc2)s1 | inconclusive: 39.8 µM [inhibitor, single point] | – |
| Cc1cccc(-c2nc3ccccc3c(=O)n2NC(=O)/C=C/c2ccc([N+](=O)[O-])cc2)c1 | inconclusive: 25.1 µM [inhibitor, single point] | – |
| O=C(CSc1nc2ccccc2c(=O)n1-c1ccc(F)cc1)Nc1ccc2c(c1)CCC2 | inconclusive: 39.8 µM [inhibitor, single point] | – |
| COCCNC(=O)c1ccc2nc(CCc3ccccc3)oc2c1 | – | inactive: -2.31% |
| O=C(CSc1nc(-c2ccccc2)nc2c1CCCC2)N1CCOCC1 | inconclusive: 7.94 µM [activator, single point] | – |
| CC(C)CCn1cnc2c([nH]c3cccc(Cl)c32)c1=O | inconclusive: 31.6 µM [inhibitor, single point] | – |
| COc1ccc(-c2[nH]ncc2C(=O)NCc2cccc(F)c2)cc1 | – | inactive: -1.17% |
| Cc1ccc2c(c1)C(Cc1nc3ccccc3c(=O)n1-c1ccc(Br)cc1)C(=O)N2 (stereo not given) | inconclusive: 25.1 µM [inhibitor, single point] | – |
| CC(=O)Nc1c(C(=O)Nc2cccc(C)c2)nnn1-c1ccc(C)cc1 | inconclusive: 39.8 µM [inhibitor, single point] | – |
| COC(=O)[C@@]1(Cc2ccccc2)[C@H]2c3cc(C(=O)N(C)C)n(Cc4ccc(OC)c(OC)c4)c3C[C@H]2CN1C(=O)c1ccccc1 | inconclusive: 7.94 µM [activator, full curve] | – |
| O=C(CCCc1nc(-c2ccco2)no1)Nc1ccccc1[N+](=O)[O-] | – | inactive: -2.49% |
| O=C(NC1CCCC1)C(c1ccsc1)N(C(=O)Cc1cccs1)c1cccc(F)c1 (stereo not given) | inconclusive: 25.1 µM [inhibitor, single point] | – |
| Cc1cc(Br)c(Cl)cc1NC(=O)CN1C(=O)C2C3CC(c4ccccc4)C(C3)C2C1=O (stereo not given) | active: 12.6 µM | – |
| Cc1ccc(-c2[nH]nc3c2C(c2ccccc2OC(=O)N2CCOCC2)C(C#N)=C(N)O3)cc1 (stereo not given) | active: 25.1 µM | – |
| O=C1CCCc2nc3nc4ccccc4n3cc21 | – | inactive: -3.52% |
| O=[N+]([O-])c1ccc(N2CCN(S(=O)(=O)c3ccccc3[N+](=O)[O-])CC2)cc1N1CCc2ccccc2C1 | active: 6.31 µM | – |
| CC(=O)Nc1ccc(-c2cn3cccnc3n2)cc1 | inconclusive: 39.8 µM [inhibitor, single point] | – |
| O=C(Nc1ccc2oc(-c3ccc4ccccc4c3)nc2c1)c1cc(Br)ccc1Cl | – | inactive: -0.524% |
| Cc1ccccc1Nc1nc(N)nc(CSc2nc3ccccc3s2)n1 | inconclusive: 39.8 µM [inhibitor, single point] | – |
| CC1CCC(NC(=O)c2ccc3c(c2)N(Cc2cccc(Cl)c2)C(=O)c2ccccc2S3=O)CC1 (stereo not given) | inconclusive: 39.8 µM [inhibitor, single point] | – |
| COc1ccc(N2CCN(C(=O)CN(Cc3ccc(Cl)cc3)S(C)(=O)=O)CC2)cc1 | inconclusive: 31.6 µM [activator, single point] | – |

| SMILES | Potency | max response, negative = inhibition |
| --- | --- | --- |
| COC(=O)c1nc2ccccc2s1 | – | inactive: -9.6% |
| CCOc1ccc(Nc2nc3ccccc3c3nnc(CC)n23)cc1 | inconclusive: 39.8 µM [activator, single point] | – |
| Cc1csc(SCC(=O)c2cc(C)n(Cc3cccs3)c2C)n1 | – | inactive: 7.09% |
| COc1cccc(NC(=O)Cn2c(=O)n(-c3cccc(OC)c3)c(=O)c3c4c(sc32)CCCC4)c1 | – | inactive: -1.52% |
| CCOC(=O)CCC(=O)Nc1ccc(S(=O)(=O)N2CCC(C)CC2)cc1 | – | inactive: 3.73% |
| COC(=O)c1c(C(=O)OC)c(-c2ccc(Cl)c(Cl)c2)n2c1CCC2 | inconclusive: 31.6 µM [activator, single point] | – |
| CNC1CC(N)[C@H](O)[C@@H](O[C@@H]2OC(CO)C3OC4(OC(C(N)CO)C(O)C(O)C4O)O[C@@H]3[C@H]2O)C1O (stereo not given in full) | – | inactive: -5.36% |
| Cc1ccc(Nc2nc3c([nH]2)c(=O)[nH]c(=O)n3C)cc1 | inconclusive: 39.8 µM [inhibitor, single point] | – |
| CCCCC(=O)O[C@]1(C(=O)CO)CC[C@H]2[C@@H]3CCC4=CC(=O)CC[C@]4(C)[C@H]3[C@@H](O)C[C@@]21C | inconclusive: 39.8 µM [activator, single point] | – |
| CC1CCN(c2nc3ccccc3nc2C(C#N)C(=O)OC2CCCCC2)CC1 (stereo not given) | inconclusive: 0.501 µM [inhibitor, single point] | – |
| CC(C)CCn1c(N)c(S(=O)(=O)c2cccs2)c2nc3ccccc3nc21 | inconclusive: 20 µM [activator, single point] | – |
| CCn1c(SCC(=O)N2CCOCC2)nc2sc3c(c2c1=O)CCCC3 | inconclusive: 31.6 µM [activator, single point] | – |
| O=C(NCCc1ccccc1)C(=O)NCC(c1cccnc1)N1CCN(c2ccc(F)cc2)CC1 (stereo not given) | inconclusive: 10 µM [activator, partial curve] | – |
| Cc1ccc(S(=O)(=O)[N-]c2nc3ccccc3nc2-n2cc[n+](CCC(C)C)c2)cc1 | inconclusive: 31.6 µM [activator, single point] | – |
| Cc1cccc(-c2csc(NC(=O)c3cnccn3)c2C(=O)OC(C)C)c1 | inconclusive: 31.6 µM [inhibitor, single point] | – |
| Cc1cc(NC(=O)COC(=O)c2cc3c(s2)CCC(C)C3)no1 (stereo not given) | active: 31.6 µM | – |
| O=C(c1cccs1)N1CCCc2cc(NS(=O)(=O)c3ccc(Cl)cc3)ccc21 | – | inactive: 9.34% |
| N=c1oc2ccc3ccccc3c2cc1-c1nc(-c2ccccc2)cs1 | active: 25.1 µM | – |
| Cn1c(=O)c2c(nc(NCCNc3nc4c(c(=O)n(C)c(=O)n4C)n3C)n2C)n(C)c1=O | – | inactive: 3.06% |
| CCOc1ccc(N=C2NC(=O)S/C2=C\c2ccc(N(C)C)cc2)cc1 | inconclusive: 31.6 µM [inhibitor, single point] | – |
| COC(=O)c1nn2c(C(F)(F)F)cc(-c3ccc(Br)o3)nc2c1Br | inconclusive: 31.6 µM [inhibitor, single point] | – |
| CCOc1ccc(-c2nn3c(-c4ccc(OC)cc4)nnc3s2)cc1 | inconclusive: 39.8 µM [activator, single point] | – |

| SMILES | Potency | max response, negative = inhibition |
| --- | --- | --- |
| O=C(Cc1ccc(-c2ccccc2)cc1)NCc1ccccc1 | inconclusive: 31.6 µM [inhibitor, single point] | – |
| CC1(C)CCC[C@@](C)([C@H]2CC[C@]3(C)[C@@H]2[C@H](O)C[C@@H]2[C@@]4(C)CC[C@H](O)C(C)(C)[C@@H]4[C@@H](O)C[C@]23C)O1 | inconclusive: 39.8 µM [activator, single point] | – |
| CCc1nc(OCc2ccccc2)c2sc3nc4c(cc3c2n1)COC(C)(C)C4 | inconclusive: 39.8 µM [activator, single point] | – |
| COc1cc2c(C(=O)N3CCN(c4cccc(C)c4)C(C)C3)cn(CC(C)C)c(=O)c2cc1OC (stereo not given) | inconclusive: 25.1 µM [activator, single point] | – |
| CCCC(C)C(=O)Nc1nc(C)c(-c2csc(Nc3ccccc3OC)n2)s1 (stereo not given) | inconclusive: 25.1 µM [inhibitor, single point] | – |
| CC(=O)N1[C@H](C)C=C[C@]1(Cc1ccccc1)C(=O)NCc1ccc(C)o1 | – | inactive: 5.65% |
| COc1ccccc1NC(CC(=O)c1ccccc1)C(=O)OCC(=O)c1ccc(Br)cc1 (stereo not given) | inconclusive: 39.8 µM [inhibitor, single point] | – |
| Cc1nc2cnc(N3CCOCC3)nc2n(CCC#N)c1=O | – | inactive: -7.95% |
| Cc1ccc(Oc2nc(-c3ccccc3)ncc2S(=O)(=O)c2ccc(C)cc2)cc1 | inconclusive: 25.1 µM [inhibitor, partial curve, poor fit] | – |
| O=S(=O)(NCC(Nc1ccccc1)c1ccccc1)c1ccc(Cl)cc1 (stereo not given) | inconclusive: 39.8 µM [inhibitor, single point] | – |
| c1csc(-c2nnc3ccccn23)c1 | inconclusive: 25.1 µM [activator, single point] | – |
| CC(SC1=NCCS1)C(=O)Nc1nnc(-c2ccc(Br)cc2)s1 (stereo not given) | inconclusive: 39.8 µM [inhibitor, single point] | – |
| COc1ccc(OC)c2sc(NC(=O)c3ccc(S(=O)(=O)N(C)C)cc3)nc12 | inconclusive: 10 µM [activator, partial curve] | – |
| CCCN1C(C(=O)c2ccccc2)=C(OC(=O)c2ccc(F)cc2)c2ccccc2S1(=O)=O | inconclusive: 39.8 µM [inhibitor, single point] | – |
| O=C(O)C[n+]1ccccc1 | – | inactive: 4.48% |
| COc1ccc(-c2nc(-c3cccc(C)c3)nc(N3CCN(C)CC3)c2C#N)cc1 | inconclusive: 20 µM [activator, single point] | – |
| Cc1cccc(/C=N/c2sc3c(c2C#N)CCN(Cc2ccccc2)C3)c1O | inconclusive: 39.8 µM [inhibitor, single point] | – |
| Cc1[nH]nc(-c2ccc(OCc3cnn(-c4ccccc4)c3)c(C)c2O)c1Oc1ccccc1 | active: 12.6 µM | – |
| CCC(C)c1ccc(OCC(=O)Nc2ccc3[nH]c(=O)[nH]c3c2)cc1 (stereo not given) | active: 25.1 µM | – |
| Cc1ccc(C)c(NC(=O)CCc2c(C)n(C)c3cc(-c4ccccc4C)nn3c2=O)c1 | – | inactive: -5.32% |
| O=C(Nc1ccc2oc(-c3cccnc3)nc2c1)c1ccc(-c2cccc(OC(F)(F)F)c2)o1 | – | inactive: 23.7% |
